Reference: PubChem BioAssay AID1745845 (National Center for Advancing Translational Sciences (NCATS), 2022)
Where “and” joins values, the source holds several entries; their conditions need not be identical. Identical values can stand only once. About 2,600 (0.72%) of roughly 360,000 compounds were called active. The inconclusive results got no clear call from the source; some entries with a clear call stand among them for comparison. Calls follow the shape of the dose curve; as a rule, active = well fitted inhibition curve with a large enough effect; inconclusive = small, poorly fitted or top-dose-only effect; inactive = no such curve, though single readings can be large or run the other way. Potencies beside an inconclusive call are fits to weak or partial responses and may not hold up.

Test: Primary qHTS for Inhibitors of ATXN expression; also: nearly all actives have a fitted effect of over 55% in size
Conditions: HEK-293 ATXN2-luciferase reporter, luminescence, 24 h; activity change, negative = inhibition: at 57 µM (top of the series)
Summary of the method: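 ATXN2-luciferase reporter cells (luciferase flanked by upstream and downstream ATXN2 gene portions) were treated 24 h at 37 °C with compounds at up to 57 uM. SteadyGlo luminescence gave expression; GF-AFC fluorescence gave viability.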
% is scaled to controls: 0 for no effect and ±100 for the full control effect; potency is read from the fitted curve at half-maximal effect; tags tell the direction and shape of the fitted curve.

With `Cc1ccc(S(=O)(=O)n2nc(-c3ccco3)nc2NCc2ccc(N(C)C)cc2)cc1` as the compound, how does the “activity change, negative = inhibition” value read?
Its value is inactive: 1.36%.

For `CCn1cc2nc(SCc3cccc(C)c3)n(CCc3ccccc3)c(=O)c2n1`, which Potency is on record?
Its Potency is inconclusive: 25.1 µM [inhibitor, single point].

With `Cc1[nH]c2ccccc2c1C(=O)CSc1nc2ccccc2c(=O)n1CCCN1CCOCC1` as the compound, how does the Potency read?
The Potency was inconclusive: 29.9 µM [inhibitor, single point].

For `CCOc1cc(/C=C2\C(=O)ON=C2C)ccc1OCc1ccccc1`, which Potency is on record?
Its Potency is inconclusive: 31.6 µM [inhibitor, single point].

With `Cc1csc(NC(=O)CCc2c(C)nc3cc(-c4cccc(F)c4)nn3c2C)n1` as the compound, how does the Potency read?
The Potency was inconclusive: 35.5 µM [inhibitor, partial curve, poor fit].

For `Cc1ccc(NC(=O)c2cc(-c3cc(Cl)ccc3C)n[nH]2)cc1NS(C)(=O)=O`, which Potency is on record?
Its Potency is inconclusive: 28.2 µM [inhibitor, partial curve, poor fit].

With `O=C(N/N=C/c1cccs1)c1ccc(NC(=O)c2ccccc2Cl)cc1` as the compound, how does the Potency read?
Its Potency is inconclusive: 1.68 µM [inhibitor, single point].

With `COC(=O)[C@@]1(Cc2ccc(OC)cc2)[C@@H]2C(=CC(=O)[C@H]2CC(=O)C(=O)N2CCCC2)CN1C(=O)c1ccccc1` as the compound, how does the Potency read?
Its Potency is inconclusive: 31.6 µM [inhibitor, single point].

Which Potency does the source give for `O=C(c1cc2c(s1)-c1ccccc1S(=O)(=O)C2)N1CCN(Cc2ccccc2)CC1` here?
The Potency was inconclusive: 25.1 µM [inhibitor, partial curve, poor fit].

With `NC(N)=N/N=C/c1ccc2cccc(OCc3ccccc3)c2n1` as the compound, how does the Potency read?
Its Potency is active: 29.9 µM.

With `O=C(NCc1ccccc1Cl)c1ccc(NC(=O)N2CCSc3ccccc32)cc1` as the compound, how does the “activity change, negative = inhibition” value read?
The value was inactive: 5.34%.

With `COc1ccc(OC)c(NC(=O)c2c(NCc3ccc(N(C)C)cc3)sc3c2CCCC3)c1` as the compound, how does the Potency read?
The Potency was inconclusive: 39.8 µM [inhibitor, single point].

With `CCN(CC)c1nc(-c2ccccn2)nc(-c2ccccc2)c1C#N` as the compound, how does the Potency read?
Its Potency is active: 4.47 µM.

With `CN(C)CC(C)(C)CNc1nn2c(-c3ccccc3)nnc2cc1C1CCC1` as the compound, how does the Potency read?
The Potency was active: 0.769 µM.

For `CCCCNc1c(-c2ccc(Sc3ccc(OC)cc3)cc2)nc2cc(C)ccn12`, which Potency is on record?
Its Potency is inconclusive: 35.5 µM [inhibitor, single point].

With `CC(=O)c1ccc(NC(=O)COC(=O)CCN2C(=O)c3cccc([N+](=O)[O-])c3C2=O)cc1` as the compound, how does the “activity change, negative = inhibition” value read?
The value was inactive: 3.22%.

Which Potency does the source give for `Nc1nonc1-c1nc2ccccc2n1CC(=O)Nc1cccc(Cl)c1Cl` here?
The Potency was inconclusive: 8.91 µM [inhibitor, partial curve].

With `Cc1cccc(-c2noc(-c3ccc(NCc4cccnc4)c([N+](=O)[O-])c3)n2)c1` as the compound, how does the “activity change, negative = inhibition” value read?
Its value is inactive: 12.3%.

Which Potency does the source give for `CC(C)(C)CC(C)(C)N=C1Nc2cc(Cl)c(Cl)cc2NC12C[C@H]1CCC(=O)N3CC[C@@H](C2)[C@@H]13` (stereo not given in full) here?
The Potency was inconclusive: 31.6 µM [inhibitor, single point].

For `COc1ccccc1N1CCN(Cc2ccc(O)c3ncccc23)CC1`, which Potency is on record?
Its Potency is active: 3.55 µM.

Which Potency does the source give for `COc1ccc(S(=O)(=O)Nc2cc3c(cc2C(C)=O)OCO3)cc1` here?
Its Potency is inconclusive: 16.8 µM [inhibitor, partial curve, poor fit].

With `Cc1ccc(CSc2cn(CCNC(=O)c3cccs3)c3ccccc23)cc1` as the compound, how does the Potency read?
Its Potency is inconclusive: 22.4 µM [inhibitor, single point].

For `COc1cccc(C2=N/C(=C\N(C)C)C(=O)O2)c1`, which “activity change, negative = inhibition” value is on record?
Its value is inactive: 21.8%.

With `COc1cccc(/C=N/NC(=O)c2c(-c3ccccc3)noc2C)c1O` as the compound, how does the Potency read?
Its Potency is inconclusive: 3.55 µM [inhibitor, full curve].

Which Potency does the source give for `COc1ccc(F)cc1-c1cc(NC=O)c2ncc(-c3cccc(C(=O)N(C)C)c3)n2c1` here?
The Potency was active: 25.1 µM.

Which Potency does the source give for `CCOC(=O)Cc1csc(NC(=O)c2sc3nc4c(C)cc(C)cc4cc3c2N)n1` here?
The Potency was inconclusive: 39.8 µM [inhibitor, single point].

For `O=C(Cn1ncc(Cl)c(Cl)c1=O)Nc1ccc2c(c1)OCO2`, which Potency is on record?
The Potency was inconclusive: 31.6 µM [inhibitor, single point].

Which Potency does the source give for `Cc1nn(Cc2c(F)c(F)c(F)c(F)c2F)c(C)c1NC(=O)c1ccc(COc2ccc(Cl)cc2Cl)o1` here?
Its Potency is active: 20 µM.

For `Cc1c(C(=O)NCc2ccc(Cl)c(Cl)c2)sc(=O)n1Cc1cccc(F)c1`, which Potency is on record?
The Potency was inconclusive: 28.2 µM [inhibitor, single point].

Which Potency does the source give for `Oc1ccc(C[C@@H]2CNCCN2CCc2cc(C(F)(F)F)cc(C(F)(F)F)c2)cc1` here?
Its Potency is active: 20 µM.

With `COC(=O)C1=C(CCc2ccccc2)NC(=O)NC1c1ccc(Br)cc1` (stereo not given) as the compound, how does the Potency read?
Its Potency is inconclusive: 28.2 µM [inhibitor, partial curve, poor fit].

Which “activity change, negative = inhibition” value does the source give for `COc1ccccc1NC(=S)NC(C)=O` here?
The value was inactive: -11.9%.

For `Cc1ccc(S(=O)(=O)N(C(=O)c2ccncc2)c2ccc(OC(=O)c3ccncc3)c3ccccc23)cc1`, which Potency is on record?
Its Potency is active: 18.9 µM.

For `COc1ccc(C2=C(C=C(C#N)C#N)C(c3ccccc3C)c3ccccc3O2)cc1OC` (stereo not given), which Potency is on record?
The Potency was inconclusive: 39.8 µM [inhibitor, partial curve, poor fit].

Which “activity change, negative = inhibition” value does the source give for `COc1cccc(N=Cc2c(O)n(-c3cccc(C)n3)c(=O)c3ccccc23)c1` here?
Its value is inactive: -15.4%.

For `O=c1cc(-c2ccc(O)c(O)c2)oc2ccc3ccccc3c12`, which Potency is on record?
The Potency was inconclusive: 39.8 µM [inhibitor, single point].

With `O=C(c1cccc(Cl)c1)N1CCC(=O)N(C(COCc2cccc(Cl)c2)Cc2ccccc2)CC1` (stereo not given) as the compound, how does the Potency read?
The Potency was inconclusive: 28.2 µM [inhibitor, single point].

With `CN(C)CCCN(C(=O)CCc1ccccc1)c1nc2ccc(Br)cc2s1` as the compound, how does the Potency read?
Its Potency is active: 25.1 µM.

For `COc1ccccc1CCNC(=O)C(=O)NCC(c1cccnc1)N1CCN(c2ccccc2)CC1` (stereo not given), which Potency is on record?
The Potency was inconclusive: 28.2 µM [inhibitor, partial curve, poor fit].

Which Potency does the source give for `CCCCCc1cc(O)c2c(C)cc(=O)oc2c1` here?
Its Potency is inconclusive: 22.4 µM [inhibitor, single point].

For `COCCNC(=S)N(Cc1cccs1)Cc1cc2cccc(C)c2[nH]c1=O`, which “activity change, negative = inhibition” value is on record?
The value was inactive: -12.5%.

Which Potency does the source give for `COc1cccc(CNS(=O)(=O)c2cc(-c3cc(C)no3)ccc2C(C)C)c1` here?
The Potency was inconclusive: 20 µM [inhibitor, single point].

With `OC[C@@H]1CN(Cc2ccncc2)C[C@H](n2cnc3c(N4CCN(c5ccccc5)CC4)ncnc32)O1` as the compound, how does the Potency read?
The Potency was inconclusive: 28.2 µM [inhibitor, partial curve].

With `CCCN1CCN(CCCNC(=O)c2cc3c(s2)-c2ccccc2OC3)CC1` as the compound, how does the Potency read?
Its Potency is inconclusive: 22.4 µM [inhibitor, single point] and inconclusive: 17.8 µM [inhibitor, partial curve].

For `CNc1nccc(-c2cccnc2Oc2cc(C(=O)Nc3cccc(C(F)(F)F)c3)ccc2C)n1`, which Potency is on record?
Its Potency is active: 24.3 µM.

For `O=C(CN(Cc1ccc(Cl)c(Cl)c1)S(=O)(=O)c1ccccc1)N/N=C\c1ccc2c(c1)OCO2`, which “activity change, negative = inhibition” value is on record?
Its value is inactive: -15.8%.

Which Potency does the source give for `C[C@H](NC(=O)[C@@H](O)c1cc(F)cc(F)c1)C(=O)N[C@@H]1C(=O)N(C)c2ccccc2-c2ccccc21` here?
The Potency was inconclusive: 0.243 µM [inhibitor, full curve].

Which Potency does the source give for `CCC(C)Sc1ccc([C@@H]2[C@H]3C(=O)N(CC)C(=O)[C@H]3[C@]3(C(=O)OC)CCCCN23)cc1` (stereo not given in full) here?
Its Potency is inconclusive: 39.8 µM [inhibitor, single point].

With `COc1ccc2cc3cc(C(=O)NCCN4CCN(c5ccccc5F)CC4)oc3nc2c1` as the compound, how does the Potency read?
Its Potency is inconclusive: 39.8 µM [inhibitor, single point].

For `Cc1ccc(-n2nnnc2CCl)cc1`, which Potency is on record?
The Potency was inconclusive: 33.6 µM [inhibitor, single point].

Which “activity change, negative = inhibition” value does the source give for `COc1ccc(NC(=O)Nc2cc(F)ccc2C)cc1` here?
Its value is inactive: 0.961%.

For `CCS(=O)(=O)Nc1ccc2[nH]c(O)c(C(=Nc3ccc(CN4CCCCC4)cc3)c3ccccc3)c2c1`, which Potency is on record?
The Potency was active: 7.69 µM.

For `Cc1ccc2cc3cc(C(=O)N4CCN(c5ccccc5)CC4)sc3nc2c1`, which “activity change, negative = inhibition” value is on record?
The value was inactive: 10.5%.

Which Potency does the source give for `O=[N+]([O-])c1ccc(-c2nc(-c3cccs3)c(-c3cccs3)[nH]2)cc1` here?
Its Potency is inconclusive: 39.8 µM [inhibitor, single point].

Which “activity change, negative = inhibition” value does the source give for `Cc1cccc(N2CCN(C(=O)C(NS(=O)(=O)c3cccs3)c3ccccc3)CC2)c1C` (stereo not given) here?
The value was inactive: 0.0255%.

Which “activity change, negative = inhibition” value does the source give for `CC(C)CN(C(=O)COC(=O)c1cccc2ccccc12)c1c(N)n(Cc2ccccc2)c(=O)[nH]c1=O` here?
The value was inactive: -8.59%.

With `Cc1cc(C)c2nc(N3CCCC(C(=O)N4CCN(c5ncccn5)CC4)C3)sc2c1` (stereo not given) as the compound, how does the Potency read?
The Potency was inconclusive: 22.4 µM [inhibitor, single point].

Which “activity change, negative = inhibition” value does the source give for `Cc1ccc(N2C(=O)N3[C@H](c4ccc(Cl)cc4)[C@@H]4C(=O)N(C5CCCCC5)C(=O)[C@@H]4[C@]3(Cc3ccccc3)C2=O)cc1` here?
The value was inactive: 6.13%.

With `O=C1CSC(=S)N1c1ccc(F)c(Cl)c1` as the compound, how does the Potency read?
The Potency was inconclusive: 2.82 µM [inhibitor, partial curve, poor fit].

Which activity change, negative = inhibition does the source give for `Cc1ccc(O)c(NC(=O)CSc2ccc(Cl)cc2)c1` here?
The activity change, negative = inhibition was inactive: 0.373% [at 11.3 µM].

For `O=C(O)COc1ccccc1/C=N/n1c(C2CCCCC2)n[nH]c1=S`, which “activity change, negative = inhibition” value is on record?
Its value is inactive: -0.554%.

Which Potency does the source give for `C=CCOC(=O)C1=C(C)NC(SCC(=O)Nc2ccc(C)c(Cl)c2)=C(C#N)C1c1ccco1` (stereo not given) here?
Its Potency is inconclusive: 25.1 µM [inhibitor, partial curve, poor fit].

With `Cc1ccccc1NCc1ccc(O)c2ncccc12` as the compound, how does the Potency read?
Its Potency is inconclusive: 31.6 µM [inhibitor, single point].

With `CC(=O)N1CCN(c2ccc(NC(=O)c3ccc(C(C)(C)C)cc3)cc2)CC1` as the compound, how does the Potency read?
The Potency was inconclusive: 39.8 µM [inhibitor, single point].

With `O=C(CCCOc1ccccc1)N1CCCCC1` as the compound, how does the Potency read?
The Potency was active: 11.2 µM.
